The campaign covered roughly 48,000 compounds. About 120 (0.25%) were called active. Another 4% or so got no clear call; they are omitted. The call rests on the fitted dose curve; in most records, active means well fitted activation curve with a large enough effect; inconclusive means small, poorly fitted or top-dose-only effect, or another doubt; inactive means no such curve, though single readings can be large or run the other way. The list shows a part of the results.
Assay: Primary qHTS for Identification of Small Molecule Activators of Huntingtin-Antisense Promoter Activity; further: nearly all actives have a fitted effect of over 55% in size
Conditions: HEK293 HTT-AS promoter firefly luciferase reporter, 24 h; series mostly up to 57.5 µM; activity change, positive = activation: at the top concentration
Summary of the method: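 HEK293 cells carrying firefly luciferase reporters were seeded at 2,500 per well in Opti-MEM and cultured for 24 h. They were then treated with compounds at up to 57.5 uM final for 24 h at 37 degrees C before Dual-Glo luminescence readout.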

Activity change, positive = activation, inactive:
O=C(CCCc1ccccc1)NC1CC(=O)N(c2cccc(F)c2)C1 (stereo not given) -10.3%, O=C(Nc1ccc(Br)c(Cl)c1)c1ccc(C(=O)Nc2ccc(Br)c(Cl)c2)cc1 -16%, CCOC(=O)c1cc2c(=O)n3ccccc3nc2n(C)c1=NC(=O)c1c(-c2c(F)cccc2Cl)noc1C 7.01%, Cc1ccc(C)c(NC(=O)C2CCN(S(=O)(=O)c3c(C)noc3/C=C/c3cccs3)CC2)c1 -24.2%, Cc1sc2c(c1C)c(=O)n(CCc1ccccc1)c(=O)n2Cc1ccc(C(C)(C)C)cc1 8.64%, CCn1c(CNC(=O)c2ccc(OC)cc2)nnc1SCC(=O)Nc1cc(C)ccc1C -23.4%, COc1ccccc1C(=O)NCc1nc2cccnc2n1Cc1ccc(F)cc1 -7.13%, COc1ccc(Cl)cc1NC(=O)CSc1nccn1-c1ccc(Cl)cc1 -31.5%, CCOCN(C(=O)Cn1c(COC)nc2ccccc21)c1c(C)cccc1CC -6%, COc1ccc(S(=O)(=O)N2Cc3ccccc3CC2C(=O)Nc2cc(Cl)ccc2Cl)cc1 (stereo not given) -27.3%, Cc1ccc(C)c(N2CCN(C(=O)c3cc(C)nc4c3c(C)nn4-c3ccccc3)CC2)c1 -20.9%, COc1cc(CN(C(=O)COc2ccc(F)cc2)c2ccccn2)cc(OC)c1OC -18.9%, CCOc1ccc(OCC(=O)Nc2ccc(S(=O)(=O)Nc3cc(C)on3)cc2)cc1 -5.76%, COc1cc(NC(=O)CCN2CCN(CCO)CC2)cc(OC)c1 13.7%, CCc1nn(CC(=O)NCCc2ccc(SC)cc2)c(=O)c2cc3sccc3n12 -15.9%, CCCc1cc(=O)n2[nH]c(NCc3c(F)cccc3Cl)nc2n1 2.62%, COc1ccc(N2CCN(S(=O)(=O)c3ccc4c(c3)C(C(C)C)C(=O)N4)CC2)cc1 (stereo not given) -31.1%, Cc1nc2cc(-c3cccc(F)c3)nn2c(C)c1CCC(=O)NCCc1ccccc1 -61.8%, Cc1ccc(NC(=O)c2ccc(=O)n(CC(=O)Nc3ccccc3)n2)cc1 -10.2%, Cn1c(=O)c2sccc2n2c(CCCC(=O)Nc3ccc(Oc4ccccc4)cc3)nnc12 -34.1%, CCOC(=O)COc1ccc(-c2nnn(CC(=O)Nc3ccccc3)n2)cc1 3.09%, Cc1ccc(NC(=O)CN2C=NS(=O)(=O)c3ccccc32)cc1 3.06%, COc1ccc(-c2noc(CC(=O)N(C)c3cccc(C)c3)n2)cc1 -15.3%, CCOC(=O)COc1ccc(CC)cc1C(=O)c1ccn2nc(-c3ccc(F)cc3)cc2n1 -11.4%, CCOC(=O)c1cnc2ccc(Br)cc2c1NCCN1CCOCC1 -22.5%, O=C(Nc1ccc2c(c1)CCCN2C(=O)c1cccs1)c1ccc(F)c(F)c1 -23.8%, COc1ccc(C(=O)c2cn(Cc3ccccc3F)c3cc4c(cc3c2=O)OCCO4)cc1OC -8.09%, COc1ccc(Cl)cc1S(=O)(=O)Nc1ccc2[nH]c(=O)[nH]c2c1 10.8%, Cc1ccc(N2CC(NC(=O)c3ccccc3C(F)(F)F)CC2=O)cc1C (stereo not given) -4.9%, CCc1ccc(S(=O)(=O)c2cn(Cc3ccccc3)c3cc(N4CCCC4)c(F)cc3c2=O)cc1 -10%, Cc1ccc(Cl)cc1N1CCN(C(=O)CCS(=O)(=O)c2cc(Br)cc3c2N(C(=O)C2CC2)CC3)CC1 -17.4%, COc1ccc(NC(=O)CSc2oc(-c3cccs3)nc2S(=O)(=O)c2ccccc2)c(OC)c1 -18.5%, O=C(Nc1ccc(C(=O)OCc2cc(=O)n3nc(C4CC4)sc3n2)cc1)c1ccccc1 8.1%, Cc1cccc(CNC(=O)c2cc3cc(S(=O)(=O)N4CCCCC4)ccc3n2C)c1 -34.9%, Cc1ccc(CCNC(=O)Cn2c(-c3cccs3)cc3ccccc32)cc1 -24.5%, COc1ccc(C(=O)NCCn2cc(SCc3ccc(C(F)(F)F)cc3)c3ccccc32)cc1OC -59.7%, O=C(Nc1ccc(Oc2ccc(Cl)cc2)c(Cl)c1)c1cc(I)cc(I)c1O -93.3%, COc1cccc(CNC(=O)C2CCCN(S(=O)(=O)N(C)c3ccc(F)cc3)C2)c1OC (stereo not given) -90.5%, Cc1cccc(NC(=O)CSC2=Nc3ccccc3C3=NC(CC(=O)NCc4cccs4)C(=O)N23)c1 (stereo not given) -5.04%, COc1ccccc1/C=C/c1nc(C#N)c(NC2CCCCC2)o1 9.76%, COc1ccc(CNC(=O)CCCn2nc(C)n3c(cc4sccc43)c2=O)cc1 2.77%, COCCn1c(C)cc(O)c(C(c2ccccc2OC)N2CCN(c3ccccc3)CC2)c1=O (stereo not given) 3.14%, Cc1cc(C)c2c(=O)cc(C(=O)Nc3sc4c(c3C(=O)NCc3cccnc3)CCCC4)oc2c1 -1.79%, CCC(Sc1nc2nccnc2c(=O)n1Cc1ccc(OC)cc1)C(=O)NC1CCCCC1 (stereo not given) -12.8%, CCOc1ccccc1CNC(=O)c1ccc2c(c1)sc1nc(-c3cccc(OC)c3)cn12 27.9%, CC(C)n1c(SCC(=O)Nc2ccc(F)cc2)nc2c(oc3ccccc32)c1=O 3.68%, CC(C)C12CN3CC(C(C)C)(CN(C1)C3c1ccc(OCc3ccccc3)cc1)C2=O (stereo not given) 15%, COC(=O)c1cc(S(=O)(=O)NCC2CCN(Cc3ccc(C)cc3)CC2)c[nH]1 -12.4%, CC(=O)c1cccc(NC(=O)c2ccc(-n3c(C)nnc3C)cc2)c1 -7.02% [at 11.5 µM, percent change from vehicle, -100% = no light], CCOc1ccc(-n2c(SCC(=O)Nc3ccc(F)cc3)nc3c([nH]c4ccccc43)c2=O)cc1 -23.1%, Cc1ccc2c(c1)N(C(=O)N1CCC(C(=O)NC3CCCCCC3)CC1)CC(C)O2 (stereo not given) 16.7%, COc1cc(NC(=O)Cc2c(C(=O)O)c(C)cn2C)cc(OC)c1 -17%, COc1ccc(/C=C/C(=O)Nc2sc3c(c2C(N)=O)CCC(C)C3)cc1OC (stereo not given) -7.59%, CCOC(=O)c1c(NC(=O)c2cc(C)on2)sc(C)c1C -3.01%, CCOc1ccc(NC(=O)CCS(=O)(=O)c2cccc3nonc23)cc1 25.3%, CCc1cccc(NC(=O)CSc2ncccc2C(=O)Oc2ccccc2Cl)c1 -26.3%, CNC(=O)c1c[nH]c2ccc(S(=O)(=O)Nc3cccc(Cl)c3C)cc2c1=O -49.6%, Cc1cc(C)cc(OCc2ccc(C(=O)Nc3ccccc3F)o2)c1 24%, COc1ccc(CNC(=O)CCC(=O)N2CC3CCCN3c3ccccc32)c(OC)c1 (stereo not given) -8.04%, Cc1ccc(C2=CC(c3c(F)cccc3Cl)n3ncnc3N2)cc1C (stereo not given) -10.5%

From PubChem BioAssay AID1508624 (National Center for Advancing Translational Sciences (NCATS), 2021)
